Hit rate of the full screen: of about 110,000 compounds, about 230 (0.21%) showed an effect of 50% or more. This is one part of the list.
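Note: 30 min substrate incubation versus DMSO and 10 µM JCP410 controls.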

The experiment deals with DPAP1 (Plasmodium falciparum, UniProt Q8IIJ9). In words: primary screen, percent inhibition; read by cleavage of a fluorogenic dipeptide substrate; higher = more effect of the substance. Also on record: species or system P. falciparum D10 trophozoite lysates; single well.
Chain of DPAP1 (Q8IIJ9 whole entry, looked up): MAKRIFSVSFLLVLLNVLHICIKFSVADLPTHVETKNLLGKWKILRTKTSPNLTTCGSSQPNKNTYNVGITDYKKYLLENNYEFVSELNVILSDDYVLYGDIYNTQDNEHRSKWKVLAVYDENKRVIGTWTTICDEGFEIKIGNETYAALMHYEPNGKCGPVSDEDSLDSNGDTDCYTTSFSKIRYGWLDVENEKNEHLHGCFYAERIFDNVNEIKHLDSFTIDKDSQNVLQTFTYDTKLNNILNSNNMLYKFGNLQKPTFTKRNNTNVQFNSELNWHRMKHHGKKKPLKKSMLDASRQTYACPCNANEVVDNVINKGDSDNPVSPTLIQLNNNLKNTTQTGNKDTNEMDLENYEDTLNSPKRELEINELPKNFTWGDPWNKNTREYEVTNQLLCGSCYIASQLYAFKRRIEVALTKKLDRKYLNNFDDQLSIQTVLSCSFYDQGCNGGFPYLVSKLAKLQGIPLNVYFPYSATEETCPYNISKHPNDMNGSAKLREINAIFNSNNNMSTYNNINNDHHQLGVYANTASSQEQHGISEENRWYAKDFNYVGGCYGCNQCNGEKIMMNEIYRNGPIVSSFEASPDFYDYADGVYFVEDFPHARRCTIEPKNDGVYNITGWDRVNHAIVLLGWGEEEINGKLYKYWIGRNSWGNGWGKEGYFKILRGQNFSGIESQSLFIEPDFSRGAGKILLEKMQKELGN
As for `COc1ccccc1NC(=O)CN(c1ccccc1OC)S(=O)(=O)c1ccccc1`, the “% Inhibition @ 10 uM” value was found to be 2.45%. As to `N#CC1=C(N)OC2=C(C(=O)CCC2)C1c1ccc(F)c(F)c1` (stereo not drawn), the “% Inhibition @ 10 uM” value is reported as 2.36%.

As for `CC1(NC(=S)N2CCOCC2)CCS(=O)(=O)C1` (stereo not drawn), the “% Inhibition @ 10 uM” value is recorded as 5.75%. Turning to `O=C(CCCn1c(=O)c2cccn2c2cccnc21)NCC1CCCO1` (stereo not drawn), the “% Inhibition @ 10 uM” value is 8.1%. In the case of `CCS(=O)(=O)N1CCC(C(=O)NCCOC)CC1`, the “% Inhibition @ 10 uM” value is 3.79%.

Take `O=C1/C(=C/c2ccc(Br)cc2)N=C(c2ccccc2)N1c1ccccc1`: the “% Inhibition @ 10 uM” value was -8.99%. Regarding `O=C1C2=C(c3cc(O)ccc3O)CCCN2C(=O)CN1Cc1ccccc1`, the “% Inhibition @ 10 uM” value worked out at 1.91%. In the case of `CCC(NC(=O)Nc1ccccc1)c1ccccc1` (stereo not drawn), the “% Inhibition @ 10 uM” value is given as -0.744%. For the compound `CN1C(=O)C(=N)c2c3ccccc3c(O)c3c(Br)ccc1c23`, the “% Inhibition @ 10 uM” value is reported as -7.39%. In the case of `CCOC(=O)N1CCN(C(c2ccncc2)c2c(C)[nH]c3ccccc23)CC1` (stereo not drawn), the “% Inhibition @ 10 uM” value is reported as 2.95%. With `CCOC(=O)c1sc2nccc3c2c1N=CN3c1ccccc1`, the “% Inhibition @ 10 uM” value is -0.687%. Regarding `O=C(N/C(=C\c1ccccc1)C(=O)N1CCN(Cc2ccccc2)CC1)c1ccccc1`, the “% Inhibition @ 10 uM” value is -2.78%. Take `N#Cc1c(NC(=O)CSc2nc(N)cc(O)n2)sc2c1CCCCCC2`: the “% Inhibition @ 10 uM” value is 4.85%. The figure for `NCc1oc(-c2ccccc2)cc1C(=O)O` is -2.5%; for `CCOC(=O)N1CCC(NCc2ccc(Br)cc2)CC1` it is 1.74%. As for `Cc1ccnc(NS(=O)(=O)c2ccc(NC(=O)c3ccc(Cl)cc3Cl)cc2)n1`, the “% Inhibition @ 10 uM” value turned out to be 7.5%. Turning to `O=C(Nc1cc(Cl)ccc1Cl)C(c1ccccc1)c1ccccc1`, the “% Inhibition @ 10 uM” value is given as -2.81%. In the case of `COc1ccc(C)cc1S(=O)(=O)N1CCN=C1c1ccccc1`, the “% Inhibition @ 10 uM” value is -0.643%. In the case of `CCOc1cc2c(c([N+](=O)[O-])c1)NC(c1ccccc1)C1CC=CC21` (stereo not drawn), the “% Inhibition @ 10 uM” value was -6.7%. With `COc1ccc(CNc2nc3ccccc3n2C)cc1`, the “% Inhibition @ 10 uM” value is 2.16%. Regarding `Fc1cccc(CN2CCN(C/C=C/c3ccccc3)CC2)c1`, the “% Inhibition @ 10 uM” value was found to be 2.47%. The figure for `COc1ccccc1OCCn1c(SCC(N)=O)nc2ccccc21` is -6.22%; for `CCCOC(=O)c1ccc(OCC(O)Cn2cnc3ccccc32)cc1` (stereo not drawn) it is -1.06%; for `Cc1cccc(NC(=O)/C=C/c2cccc([N+](=O)[O-])c2)c1` it is 3%. Consider `Cc1c(CNCCCc2ccccc2)c(C(=O)O)c(C)n1Cc1ccccc1`, for which the “% Inhibition @ 10 uM” value is -0.23%. As for `CNS(=O)(=O)c1cn(CC(=O)NCCN2CCCCCC2)cc1S(=O)(=O)NC`, the “% Inhibition @ 10 uM” value is listed as -8.08%.

Turning to `Cc1ccc(Cl)cc1NC(=O)c1ccc(F)cc1`, the “% Inhibition @ 10 uM” value turned out to be 1.91%.

Consider `Cc1ccc(C(=O)Nc2c(C(=O)NCc3ccccc3)cnn2-c2ccccc2)cc1`, for which the “% Inhibition @ 10 uM” value is 2.26%.

For `COc1ccc(S(=O)(=O)N2CCSC2c2ccccc2)cc1` (stereo not drawn), the “% Inhibition @ 10 uM” value turned out to be 3.19%.

Turning to `N#CC1=C(N)Oc2cc(O)ccc2C1c1cccc(Cl)c1Cl` (stereo not drawn), the “% Inhibition @ 10 uM” value was 3.54%.

Turning to `COc1cccc(C2=N/C(=C\c3cccc(OC)c3OC)C(=O)O2)c1`, the “% Inhibition @ 10 uM” value is given as -4.27%.

With `COc1cccc(OC)c1-c1ccc(C(=O)N[C@@H](CC(C)C)C(=O)NCC#N)cc1`, the “% Inhibition @ 10 uM” value is on record as -10.1%. On to `COc1ccc(C2C(C#N)=C(N)Oc3cc(C)n(Cc4cccnc4)c(=O)c32)c(OC)c1OC` (stereo not drawn), for which the “% Inhibition @ 10 uM” value is on record as -1.38%. The figure for `COc1cccc2c1OC(c1ccccc1F)N1N=C(c3ccccc3O)CC21` (stereo not drawn) is -3.48%; for `Cc1cccc(NC(=O)CN2C(=O)S/C(=C\c3ccccn3)C2=O)c1` it is -2.83%; for `CCOC(=O)c1c(C)sc(C(c2ccccc2)c2sc(C)c(C(=O)OCC)c2O)c1O` it is 0.776%. As to `CCS(=O)(=O)N1CCC(C(=O)NCc2cc(OC)ccc2OC)CC1`, the “% Inhibition @ 10 uM” value was -4.83%. The figure for `CN1CCC(N(C)Cc2ccoc2)CC1` is -2.56%; for `CCOc1ccc(CCNC(=O)c2cccs2)cc1OCC` it is 2.4%. Take `O=C(CC1(O)OC(c2ccc(Cl)cc2)=CC1=O)c1ccc(Cl)cc1` (stereo not drawn): the “% Inhibition @ 10 uM” value is recorded as -0.807%.

For the compound `Cc1cccc(NC(=O)c2c(C(=O)O)cccc2[N+](=O)[O-])c1`, the “% Inhibition @ 10 uM” value amounted to 5%. With `COc1ccc(C2=N/C(=C\C=C\c3ccccc3)C(=O)O2)cc1`, the “% Inhibition @ 10 uM” value is 7.01%.

Turning to `Cc1ccc(-c2cc(N)[nH]n2)cc1`, the “% Inhibition @ 10 uM” value is -2.88%. Regarding `c1ccc(CN2CCN(Cc3ccsc3)CC2)cc1`, the “% Inhibition @ 10 uM” value amounted to 0.847%. To `O=c1oc2ccc(Br)cc2cc1-c1csnn1` belongs 1.02%; to `Cc1ccc2oc(=O)c3cnn(CC(=O)N(CCCN4CCOCC4)Cc4ccco4)c3c2c1`, 7.66%; to `C=CCn1c(CCCO)nc2ccccc21`, 4.08%. As to `CCOc1ccc(C2c3c(oc4ccccc4c3=O)C(=O)N2c2nnc(C)s2)cc1OCC` (stereo not drawn), the “% Inhibition @ 10 uM” value is reported as -6.23%. Consider `NC(=O)C1CCN(C(=O)C2CCCN(C(=O)c3cnn(-c4ccccc4)c3-n3cccc3)C2)CC1` (stereo not drawn), for which the “% Inhibition @ 10 uM” value is given as -1.58%. For `Cc1ccc(C(=O)Nc2sc3c(c2C(N)=O)CCCCC3)o1`, the “% Inhibition @ 10 uM” value is listed as -2.2%. Take `CCC1CCCCN1S(=O)(=O)c1ccc(Cl)c([N+](=O)[O-])c1` (stereo not drawn): the “% Inhibition @ 10 uM” value came to 4.61%.

The record behind these values is PMC6919601, “Identification of Plasmodium dipeptidyl aminopeptidase allosteric inhibitors by high throughput screening” (PLoS ONE, 2019).
